± gives the standard deviation of the averaged measurements. This is one part of the list.
System: PfAP2-G AP2 domain (GST-tagged)
Experiment: gcPBM binding intensity (ln(normalized median fluorescence intensity)); higher = stronger DNA binding
Procedure, shortened: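 Binding of GST-tagged P. falciparum DNA-binding domains, expressed in E. coli and used at about 25 μg on average, was carried out for 1 h in 1× PBS containing 1% milk, 0.2 mg/ml BSA, 0.5% salmon testes DNA and 0.03% Triton X-100. The target was an Agilent 4 × 180k array of primer-extended double-stranded 36-bp intergenic genomic probes plus negative controls, read with Alexa488 anti-GST antibody at 488 nm. Binding intensity is the highest Masliner-normalised natural-log median intensity across replicate spots of either probe orientation.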

Sequence | gcPBM binding intensity (ln)
ATAATATTATTATAATGTACATATTTCGATATAAAT [XGTACX_site8808] | 11.2 ± 0.63
TATATATAAGCGTGTACACATTCTGAGTGTTGTATA [CACACA_site4502] | 11.7 ± 1.1
AAAAAAAAATTTTTAAAATTTAGAAAATTTAAAAAA [GTGCAC_negctrl_site649] | 9.465 ± 0.007
TAATAATGCAACCTCTGTACACAACATTATATCCAT [XGTACX_site7596] | 11.3 ± 0.77
TGTGTAATTATATATAAGGAGAAAGAATTCATTTTT [CACACA_negctrl_site670] | 9.78 ± 0.057
ATTGTCTTCTCATATACACACTTTTATGACTATCTT [CACACA_site5696] | 10.035 ± 0.007
AAATGCCATATAATTTTTCTTAAACATAATTGTATA [CACACA_negctrl_site1665] | 9.44 ± 0.32
ACAAAAAATAATCAAAATGTATATATATAATATAAT [XGTACX_negctrl_site593] | 9.84 ± 0.099
TATTGAAGTTATAAAGTGCAGATAAATATGAGTTAT [GTGCAC_site9945] | 10.2 ± 0.17
ATTATCCATGCATTTACACACACACCCAAAAAAATT [CACACA_site4101] | 10.3 ± 0.28
AAAGGGGCATATATATGTACATATTATATATTTTGA [XGTACX_site2436] | 11.1 ± 0.67
CCATAAAAAGGATACACACACACACCCACATATATA [CACACA_site903] | 10.3 ± 0.26
TGTTTTTATATATATGCACACAATGTACAAGTATAC [CACACA_site3529] | 11.2 ± 0.83
AATACATTGTCAAATTGTACAAATTATAGAACTATT [XGTACX_site2222] | 10.7 ± 0.36
TAATTTTTAATTGTAGCATGCAGTATTTTTAAATAT [TGCATGCA_site140] | 9.96 ± 0.26
TTATATATAAACATAAAAAGAAATATATTATGTATA [CACACA_negctrl_site667] | 9.47 ± 0.15
TATGTGAATATAATCACACACAATACGGAAACCCAC [CACACA_site2725] | 10.6 ± 0.31
AAAGTCTCATTAAAATGTACAAAATTTTCAGCTGTA [XGTACX_site6296] | 10.5 ± 0.36
ATATATATATATATATGTACATATAATTTTTTTTTT [XGTACX_site6948] | 11.1 ± 0.67

Sequence | gcPBM binding intensity (ln)
TTTATATTAATTTGTGTAAATGCATATGATGAGCAT [XGTACX_negctrl_site254] | 9.95 ± 0.2
AATGGCAAAATAGGCACACACACATATACAGATATA [CACACA_site4726] | 10.1 ± 0.14
TAAATTTTTTTTTTGATGCACTTAGTTATTATATTT | 9.88 ± 0.099
ATAACAATTATTTATCTACACACTTTTATGTTATTT [CACACA_site7886] | 9.94 ± 0.22
ATTAAGTCTTATATTACACACGACATTGTAATGTAA [CACACA_site528] | 9.85 ± 0.11
ATTCCACTGTTTTAGTGTACTGGTCGTTTTTTTTTT [XGTACX_site1738] | 11.5 ± 0.68
AATTTTTTATACACAAGTACAAACGCGTAGTCACTT [XGTACX_site2458] | 11.1 ± 0.73
AAAAATAAAACAATTACACACATAATTTTATTTTTA [CACACA_site928] | 9.62 ± 0.21
TCCAAAATATCCTTCACACACGAACAGTTTCATTTA [CACACA_site5511] | 10.1 ± 0.19
CTGTTAATTATATATTGTACAAAAGATATGATTATA [XGTACX_site6927] | 10.8 ± 0.42
GAATTTTTGACGATATAGGAAATAATTATCCTGAAG [XGTACX_negctrl_site61] | 9.985 ± 0.092
AAATAAAGAATATAAATACACACTTAAATATATATT [CACACA_site4007] | 9.79 ± 0.085
TGGACCAAACGACAAAAAAAAAGCAGAAAACAAAAA [GTGCAC_negctrl_site693] | 10.145 ± 0.007
ATTTATATATTTATATGTACATATCTATACATATAT [XGTACX_site7580] | 11.2 ± 0.67
TTTTTAAAAAAAAAAAAATAAAAAAAAAAAAAATAT [XGTACX_negctrl_site7] | 9.77 ± 0.28
ATAATAAAATAAATCACACATAATATAATGTAATAT [CACACA_site6144] | 9.81 ± 0.11
ACAAAAAAATAAAATATATATATATATATAATATAT [CACACA_negctrl_site805] | 9.6 ± 0.24
TATACACATTCGCGTTGTACAAAAAAAAAAAAAAAG [XGTACX_site2880] | 11.1 ± 0.64
AATAAAGGAGCCTATGAACACACACCGGTACATATA [CACACA_site9352] | 10.8 ± 0.34

Sequence | gcPBM binding intensity (ln)
ATATATATATATATATGTACATATTTACATTTTGTA [XGTACX_site3529] | 11.1 ± 0.54
ATAAAAAAAAGAAAAACACACACATATATATATATA [CACACA_site8243] | 10 ± 0.64
ATAATAATAGTAATATGTACATATATATATATATAT [XGTACX_site7437] | 11.2 ± 0.45
ATCAACATTATGTTTAGTACTTAGTGAATTGTTAAT [XGTACX_site4913] | 10.6 ± 0.31
AAGATGAACCTTTACACATGCAACAAAAAATATACA [TGCATGCA_site166] | 10.1 ± 0.11
ATTCTCCATGTTTGATGTACTCATATGACGACGGAG [XGTACX_site4923] | 11.4 ± 0.77
TTCTTATATTGTACAGTACACACCTTTATAATGTTA [CACACA_site7953] | 11.4 ± 0.81
ATATAAATAACGTGTACACACATATGTATTTATATA [CACACA_site6520] | 11.6 ± 0.89
TTCTAAATTAATAATACACACTTGCTAAAATCATTA [CACACA_site5733] | 9.805 ± 0.078
TTTATTTTATCATTTGCACACGCACCCCCACATAAA [CACACA_site8007] | 11.2 ± 0.77
AATACTTACCAAAATACACACACACCCAAAATATAT [CACACA_site8559] | 10.4 ± 0.29
AATATTTCTATATGAACATGCAATGTATCTTTTTAT [TGCATGCA_site738] | 9.875 ± 0.021
TTTTTATGATTATACTTATATAATTTCATGATTGAA [CACACA_negctrl_site228] | 9.64 ± 0.042
AGATATATAAAATATACACACAGTAATATTTATATA [CACACA_site6767] | 9.665 ± 0.092
ATATATATCTACATATGTACATATATACATTACACA [XGTACX_site7210] | 11 ± 0.56
ATTTCATATGGTCAACGTACTCATGCATCCCTCCTT [XGTACX_site437] | 11.3 ± 0.87
ATTTTTATTTTATATACACACAATAATACTAGAATA [CACACA_site7810] | 10.2 ± 0.23
AATTATATTTGAAATACACACATAAAAACCATATAG [CACACA_site7598] | 10.3 ± 0.18

Reference: the supplement of paper PMC11417369
